Among all 310,000 compounds or so, about 14,000 (4.5%) showed an effect of 50% or more. Effects have a minus sign here. The list shows a part of the results.
molecular target: human ether-à-go-go-related gene (hERG) potassium channel (human, UniProt Q12809); assay: primary screen, population patch clamp on CHO cells stably expressing hERG
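Also: peak tail current of the secondary pulse compared with the same well before compound.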

Sequence of human ether-à-go-go-related gene (hERG) potassium channel (Q12809 whole entry, looked up): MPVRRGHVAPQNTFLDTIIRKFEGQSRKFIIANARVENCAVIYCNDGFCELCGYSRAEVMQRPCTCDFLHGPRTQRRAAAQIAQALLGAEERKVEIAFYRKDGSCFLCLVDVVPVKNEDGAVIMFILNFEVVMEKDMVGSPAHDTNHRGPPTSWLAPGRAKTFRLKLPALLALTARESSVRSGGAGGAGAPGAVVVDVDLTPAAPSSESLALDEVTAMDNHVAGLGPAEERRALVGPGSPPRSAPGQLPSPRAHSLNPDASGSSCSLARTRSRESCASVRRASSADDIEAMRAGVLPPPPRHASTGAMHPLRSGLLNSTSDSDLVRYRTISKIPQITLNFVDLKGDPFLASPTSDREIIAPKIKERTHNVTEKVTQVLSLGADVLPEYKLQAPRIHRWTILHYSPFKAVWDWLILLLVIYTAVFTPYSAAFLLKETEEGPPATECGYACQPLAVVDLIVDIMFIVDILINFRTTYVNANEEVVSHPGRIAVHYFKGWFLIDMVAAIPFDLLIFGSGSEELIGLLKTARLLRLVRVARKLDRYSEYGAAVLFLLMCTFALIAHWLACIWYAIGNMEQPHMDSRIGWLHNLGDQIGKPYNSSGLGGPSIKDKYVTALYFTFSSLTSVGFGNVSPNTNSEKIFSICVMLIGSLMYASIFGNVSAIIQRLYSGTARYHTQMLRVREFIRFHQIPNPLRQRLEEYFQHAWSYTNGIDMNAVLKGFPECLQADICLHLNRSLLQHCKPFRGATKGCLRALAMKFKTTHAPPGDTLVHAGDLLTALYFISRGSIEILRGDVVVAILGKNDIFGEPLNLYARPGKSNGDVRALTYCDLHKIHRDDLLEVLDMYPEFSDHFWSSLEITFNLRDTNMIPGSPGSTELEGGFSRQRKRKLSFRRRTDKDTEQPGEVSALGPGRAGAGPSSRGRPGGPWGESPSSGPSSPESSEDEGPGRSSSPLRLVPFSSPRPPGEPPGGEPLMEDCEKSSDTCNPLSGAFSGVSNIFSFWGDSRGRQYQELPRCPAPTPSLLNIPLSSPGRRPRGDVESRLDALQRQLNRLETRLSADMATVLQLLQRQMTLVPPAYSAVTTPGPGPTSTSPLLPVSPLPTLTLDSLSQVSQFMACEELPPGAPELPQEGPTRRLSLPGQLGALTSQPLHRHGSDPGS

| SMILES | hERG current change (%, negative = inhibition) at 10uM [%] |
| --- | --- |
| Nc1ccc(C(=O)OC2CCOC2=O)cc1[N+](=O)[O-] (centres unmarked) | 0.397 |
| Cc1ccc(S(=O)(=O)NNC(=S)NC(C)(C)C)cc1 | -19 |
| O=C(NNC(=O)C1CC1)c1cc2cc3ccccc3nc2s1 | 11.4 |
| CCOC(=O)c1ccc(Nc2ncnc3c2cnn3C)cc1 | -8.65 |
| Cn1c(=O)c2c(nc(Sc3ccccc3N)n2C)n(C)c1=O | 11.4 |
| CCc1nnc(NC(=O)c2ccc(C)o2)s1 | -3.77 |
| CCCc1cc(=O)oc2c(CN3CCCC3)c(O)ccc12 | -31.8 |
| COc1cc(OC)c(C2Oc3nc(SC)nnc3-c3ccccc3N2C(C)=O)cc1OC (centres unmarked) | -19.5 |
| O=C(COc1ccc(S(=O)(=O)Nc2ccccc2)cc1)N1CCOCC1 | 7.29 |
| COc1ccccc1CCNC(=O)C(=O)Nc1cc2c3c(c1)C(C)C(=O)N3CCC2 (centres unmarked) | -26.4 |
| CCOCCn1c(-c2ccccc2)nc2ccccc21 | 2.1 |
| Cc1cc(NC(=O)C(C)SCC(=O)Nc2ccc(Br)cc2Br)no1 (centres unmarked) | -20.6 |
| COc1cc(C(=O)O)ccc1O | 37.3 |
| Cc1cc(C(=O)OCC(N)=O)c(C)n1-c1ccccc1 | 14.4 |
| O=C(O)c1cccc(CSc2nnc(COc3ccccc3)o2)c1 | -7.66 |
| CCc1ccc(NC(=O)COc2ccc(Br)cn2)cc1 | 5.94 |
| Cc1cc(NC(=O)CCSc2nc(-c3ccco3)cc(C(F)(F)F)n2)no1 | 3.17 |
| COc1cc(OC)c2c(-c3ccccc3)cc(=O)oc2c1C(CCN1CCCCC1)c1ccc2c(c1)OCO2 (centres unmarked) | -53.2 |
| C/C(=N\Nc1cc(-c2ccccc2)nc(-c2ccc(Br)cc2)n1)c1cccc(N)c1 | 11.8 |
| S=C(Nc1ccccn1)NC1CCCC1 | -17.6 |
| CN(C)CCN(C(=O)COc1ccc(Cl)cc1)c1nc2cc3c(cc2s1)OCO3 | -5.52 |
| CCOc1ccc(C(=O)NC(=S)N(Cc2ccccc2)Cc2ccccc2)cc1 | -6.27 |
| COc1ccc(C(=O)NC(=S)Nc2ccc(S(=O)(=O)Nc3cc(OC)nc(OC)n3)cc2)cc1 | 11.1 |

| SMILES | hERG current change (%, negative = inhibition) at 10uM [%] |
| --- | --- |
| CCSc1cc(N2CCCC2)nc(-c2ccc(F)cc2)n1 | -3.94 |
| COc1cc(OC)cc(C(=O)N[C@H](C(=O)OCC(=O)N2CCc3ccccc32)C(C)C)c1 | -4.37 |
| COc1ccc(CN2C(=O)CNC2=S)cc1 | 18.4 |
| Cn1c(=O)n(C)c2cc(S(=O)(=O)NCC(=O)O)ccc21 | 8.81 |
| Cc1ccc(NS(=O)(=O)c2cccc(C(=O)O)c2)c(C)c1 | 13.8 |
| O=C(CSc1nc2ccccc2c(=O)n1-c1ccccc1)N1CCN(CCO)CC1 | 17.3 |
| COC(=O)N1[C@H](Cc2ccccc2)C=C[C@]1(C)C(=O)NCc1ccccn1 | 15.2 |
| Cc1ccc(NC(=O)CN(C)C(=O)Cn2cc(C(F)(F)F)ccc2=O)cc1 | -12.4 |
| CC(C)CNC(=O)C(=O)NN=C1CCCCCC1 | 4.66 |
| COc1ccc(-c2nn(-c3ccccc3)cc2C(=O)Nc2nccs2)cc1 | -11.2 |
| COc1cc(Cl)ccc1OCc1cc(C(=O)N2C[C@]3(C)C[C@H]2CC(C)(C)C3)no1 | -8.91 |
| O=C(NCc1ccc(N2CCCC2=O)cc1)c1cnccn1 | 34.6 |
| COc1ccc(C(=O)CCC(=O)N2CCN(c3ccc(N4CCOCC4)nn3)CC2)cc1 | -12.8 |
| COc1ccc(CNc2nc(NCc3ccc(OC)cc3)n(C(=O)c3ccccc3[N+](=O)[O-])n2)cc1 | -8.02 |
| CCC1=Nc2cc(C(=O)NCc3ccco3)ccc2Sc2ccc(C)cc21 | -0.612 |
| CCN(C(=S)NC(=O)c1ccccc1Br)C1CCCCC1 | 9.24 |
| C#CCNC(=O)C1=C[C@H](c2ccc3c(c2)OCO3)[C@@H](CCCO)[C@H](OCC)O1 | 2.22 |
| COc1cccc(NC(=S)Nc2cccnc2)c1 | -3.48 |
| CCC(Sc1nc2ccccc2o1)C(=O)Nc1nnc(C)s1 (centres unmarked) | -12.4 |
| CCN(CC)S(=O)(=O)c1ccc(Cl)c(NC(=O)COC(=O)/C=C/c2ccc(O)c(OC)c2)c1 | 20.7 |
| Cc1nn(Cc2ccc(Cl)cc2)c2sc(C(=O)O)cc12 | 31.1 |
| Cc1ccc(S(=O)(=O)N2CCCCC2)cc1NC(=O)CNc1ccccc1N1CCCC1=O | -13 |
| Cc1ccc(C)c(NC(=O)CSc2nnc(-c3cc(C)[nH]n3)n2N)c1 | -7.21 |

| SMILES | hERG current change (%, negative = inhibition) at 10uM [%] |
| --- | --- |
| CCCC(=O)Nc1cc(C)c2c(=O)oc3ccccc3c2n1 | -5.16 |
| N#CC1=C(N)Oc2cc(O)ccc2C1c1ccncc1 (centres unmarked) | 1.64 |
| Cc1ccc(OCC(=O)OCC(=O)c2cccc([N+](=O)[O-])c2)cc1C | 7.05 |
| COc1ccc(NC(=O)Cn2nnc(C(=O)NCc3ccc(C)cc3)c2N)cc1Cl | 6.93 |
| O=C1CCCC(O)=C1C=Nc1ccc2c(c1)oc1ccccc12 | 8.69 |
| FC(F)(F)c1cnc(-c2cnc(-c3cccnc3)nc2)c(Cl)c1 | 11.6 |
| O=C(Cc1ccc(F)cc1)OCN1C(=O)c2ccccc2C1=O | -11.9 |
| O=C(c1ccncc1)N1N=C2CCCCCC2C1(O)C(F)(F)F (centres unmarked) | 13.2 |
| Cc1ccccc1N(CC(=O)NCc1ccc2c(c1)OCO2)C(=O)C1CSC(=O)C1 (centres unmarked) | -7.91 |
| COCCNC(=O)CNC(c1ccccc1)c1ccccc1.O=C(O)C(=O)O | 6.88 |
| CCC1=C(OC(=O)N(CC)CC)N2C(=O)OC(=NCC(=O)OC)[C@]2(Cc2ccccc2)[C@H]2C1=CC[C@H]1C(=O)N(c3ccccc3)C(=O)[C@H]12 | -23.7 |
| COc1ccc(CCNC(=O)COC(=O)c2cnc(C)cn2)cc1OC | 13.1 |
| CCN1CCN(CC(=O)N2c3ccccc3CC2C)CC1.O=C(O)C(=O)O (centres unmarked) | 2.13 |
| COc1ccc(C(=O)Oc2cccc(Nc3ncnc4ccccc34)c2)cc1OC | -21.3 |
| Cc1ccc(N(CC(=O)NCc2ccccc2)C(=O)c2csnn2)c(C)c1 | 16.3 |
| COc1ccc(S(=O)(=O)N2CCN(C(=O)NC3CCCCC3)CC2)cc1 | -21.4 |
| O=C(NC1CCCC1)c1ncn[nH]1 | 7.66 |
| CC(=O)N(c1ccc(C(F)(F)F)cc1)S(=O)(=O)c1ccc(N2C(=O)CCC2=O)cc1 | 13.1 |
| CC1CN(Cc2nc3c(c(=O)[nH]c(=O)n3C)n2CC(N)=O)CC(C)O1 (centres unmarked) | -1.64 |
| COc1ccc(Nc2nc(C)cc(C)c2C#N)cc1OC | 10.3 |
| Cc1cccc(C)c1NC(=O)CNC(=O)CCCN1C(=O)c2cccc3cccc(c23)C1=O | 7.37 |
| COc1cc(C(=O)NCCC(=O)NCCCN2CCCCC2C)cc(OC)c1OC (centres unmarked) | -2.45 |
| O=C(O)/C(=C\c1ccccc1Cl)c1ccc(S(=O)(=O)N2CCCCC2)s1 | 22.7 |

| SMILES | hERG current change (%, negative = inhibition) at 10uM [%] |
| --- | --- |
| CCCCOc1ccccc1C1NC(=O)NC(C)=C1C(=O)OCCOCC (centres unmarked) | -8.27 |
| COc1ccccc1CNc1nc(=S)[nH]c2cc(OC)c(OC)cc12 | -11.8 |
| [O-]C1=N/[N+](=C/c2ccc(Cl)c(Cl)c2)CC1 | 14.4 |
| CCOC(=O)C1CCCN(C(=O)c2csc(-c3ccc4c(c3)CCO4)n2)C1 (centres unmarked) | -8.82 |
| Cc1ccc(SCCC(=O)N2CCC(C(N)=O)CC2)cc1 | -7.54 |
| CC(C)C(=O)NNC(=O)C1CC1(c1ccccc1)c1ccccc1 (centres unmarked) | 16.9 |
| COc1ccc(/C=N/NC(=O)c2nonc2N)cc1OC | 9 |
| O=C(NN=C1CCCCCCC1)C(=O)NC1CCCCC1 | -13.6 |
| CCOC(=O)c1[nH]c(=O)c2ccccc2c1O | -9.53 |
| COc1ccc(C(=O)NC(CCSC)C(=O)N2CCCCCC2)cc1 (centres unmarked) | 0.159 |
| CCN(CC)C(=O)c1ccccc1NC(=O)c1ccccc1 | 8.85 |
| Cc1n[nH]c(C)c1CCNC(=O)C1CCC(=O)N(Cc2ccccc2F)C1 (centres unmarked) | 14.4 |
| COc1ccc(CNC(=O)c2csc(Cc3ccc(Cl)cc3)n2)cc1 | 6.63 |
| O=c1c2ccccc2cnn1Cc1n[nH]c(=S)n1-c1ccccc1Cl | 23.2 |
| CC(C)[C@H](NC(=O)c1ccco1)C(=O)OCC(=O)Nc1ccccc1OC(F)F | 5.69 |
| COc1cc(/C=N/NC(N)=O)ccc1OCC(=O)Nc1ccc(C)c(C)c1 | -10.7 |
| Cc1ccccc1NC(=S)NC(C)C(c1ccccc1)N1CCN(C)CC1 (centres unmarked) | -12.5 |
| CCSc1nnc(NC(=O)Cc2cc(OC)c(OC)c(OC)c2)s1 | 8.27 |
| COCC1CCN(Cc2nc(-c3ccc(OC)cc3)no2)CC1 | 16.2 |
| COc1ccc(NCC(=O)N/N=C/c2c(C)nn(Cc3ccccc3)c2Cl)cc1 | -15 |

— PMC4336329 (PLoS ONE, 2015)
